Among all 370,000 compounds or so, about 150 (0.041%) were called active. The shares of active, inactive and inconclusive entries below differ from those in the screen. Calls come from the whole dose curve; as a rule, active = well fitted inhibition curve with a large enough effect; inconclusive = small, poorly fitted or top-dose-only effect; inactive = flat fitted curve, though single readings scatter. No potency is given beside an inconclusive call; the fits are too rough.
molecular target: Beta-lactamase (Escherichia coli (strain K12)) (UniProt P00811); test: qHTS Inhibitors of AmpC Beta-Lactamase (assay with detergent); conditions: AmpC hydrolysis of nitrocefin, absorbance 480 nm, 0.01% Triton; series mostly up to 114 µM; note: nearly all actives have a fitted effect of over 25% in size
How it was run: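 AmpC (5.3 nM in the dispensed reagent) in 20 mM phosphate pH 7.0 with 0.01% (detergent screen) or 0.0001% Triton X-100 was preincubated with compounds for 15 min at room temperature. Nitrocefin was then added from an 800 uM solution, and hydrolysis was followed at 480 nm.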
Potency is the fitted concentration of half-maximal effect; tags give direction and shape of the fitted curve.

Chain of UniProt P00811 (P00811 whole entry, looked up): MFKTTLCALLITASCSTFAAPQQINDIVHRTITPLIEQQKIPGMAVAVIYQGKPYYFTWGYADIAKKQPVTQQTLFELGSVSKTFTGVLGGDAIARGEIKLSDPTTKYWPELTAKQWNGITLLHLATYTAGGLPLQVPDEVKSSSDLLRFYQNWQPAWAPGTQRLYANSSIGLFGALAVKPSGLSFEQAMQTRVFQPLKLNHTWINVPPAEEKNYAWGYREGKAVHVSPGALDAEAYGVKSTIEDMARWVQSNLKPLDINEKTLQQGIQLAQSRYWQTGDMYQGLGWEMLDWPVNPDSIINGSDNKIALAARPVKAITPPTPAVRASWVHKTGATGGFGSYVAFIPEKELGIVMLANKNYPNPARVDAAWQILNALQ

| Structure (SMILES) | Potency |
| --- | --- |
| CC(=O)Nc1ccc2oc(-c3ccccc3)nc2c1 | inconclusive [inhibitor, full curve, poor fit] |
| CN(C)C(=O)[C@@H]1C[C@H]1[C@@H](NC(=O)OCc1ccccc1)c1ccccc1 | inconclusive [inhibitor, partial curve, poor fit] |
| Cc1cccnc1CNC(=O)C1CCC(=O)N(CCc2cccc(F)c2)C1 (centres undefined) | inconclusive [inhibitor, full curve, poor fit] |
| CN(CC(=O)NCc1ccco1)S(=O)(=O)c1ccc2c(c1)n(C)c(=O)c(=O)n2C | inconclusive [inhibitor, single point] |
| Cc1nc2ccccc2c(=O)n1-c1ccc(NS(=O)(=O)c2ccc(F)cc2)cc1 | inconclusive [inhibitor, partial curve, poor fit] |
| CCOC(=O)NC(NS(=O)(=O)c1ccccc1)(C(=O)OCC)C(F)(F)F (centres undefined) | inconclusive [inhibitor, single point] |
| Cc1oc(C)c2c(=O)ccc3c(c12)OC(N)=C(C#N)C3c1ccccc1Cl (centres undefined) | inactive |
| CC(NC(=O)c1ccccc1)C(=O)OCC(=O)c1c(N)n(C)c(=O)n(C)c1=O (centres undefined) | inconclusive [inhibitor, full curve, poor fit] |
| CCC(Oc1ccccc1)C(=O)NCCCN1CCOCC1 (centres undefined) | inconclusive [inhibitor, full curve, poor fit] |
| COc1ccc(N2CCN(C(=O)CCNS(=O)(=O)c3cccs3)CC2)cc1 | inactive |
| Cc1ccccc1OCC(=O)OCC(=O)c1ccc(-c2ccccc2)cc1 | inconclusive [inhibitor, full curve, poor fit] |
| COc1ccc(N(CC(=O)NCc2ccc(F)cc2)S(=O)(=O)c2c(C)noc2C)cc1 | inactive |
| Cc1ccc(NC(=O)CCC(=O)N/N=C/c2cccnc2)cc1 | inconclusive [inhibitor, full curve, poor fit] |
| COc1cc(SC)ccc1C(=O)Nc1cccc(S(=O)(=O)NC2=NCCC2)c1 | inconclusive [inhibitor, full curve] |
| C=CCOC(=O)COc1ccc2c(C)c(CC)c(=O)oc2c1 | inconclusive [inhibitor, partial curve] |
| COc1cccc(C2(O)CCN(C(=O)c3cccs3)CC2)c1 | inconclusive [inhibitor, partial curve, poor fit] |
| O=C(NC1CCCCC1)NC1CC2CCC(C1)N2C(=O)NCc1ccccc1 (centres undefined) | inconclusive [inhibitor, single point] |
| Cc1c(C(=O)NC(C)c2ccccn2)oc2c(Cl)cccc12 (centres undefined) | inconclusive [inhibitor, partial curve, poor fit] |
| CCN(CC)C1CCN(C(=O)c2cc(COc3ccc(-n4cncn4)cc3)on2)C1 (centres undefined) | inconclusive [inhibitor, full curve, poor fit] |
| O=C(Nc1ccccc1O)c1ccccc1O | inactive |
| O=C(c1cc2cc(F)ccc2[nH]1)N1CCC(Cc2ccccc2)CC1 | inactive |
| COc1cccc(C(=O)Nc2ccc(NC(C)=O)cc2)c1 | inactive |

| Structure (SMILES) | Potency |
| --- | --- |
| CN(C)C(=O)c1ccc(NC(=O)Cn2nnnc2-c2ccccc2F)cc1 | inactive |
| COc1ccc(N2CCN(C(=O)CSc3n[nH]c(-c4ccccc4)n3)CC2)cc1 | inactive |
| Cc1ccc(/C=C/C(=O)OCC(=O)NC(C)c2ccccc2)o1 (centres undefined) | inactive |
| Cc1c(C(=O)NCc2ccccc2)c(-c2ccccc2)nn1-c1ccccc1 | inconclusive [inhibitor, single point] |
| COc1cc(NC(=S)NCCc2ccccc2)c(OC)cc1NC(=O)C(C)C | inconclusive [inhibitor, full curve] |
| O=C(OCc1cc(=O)oc2cc(O)ccc12)c1cc(S(=O)(=O)N2CCOCC2)ccc1F | inconclusive [inhibitor, full curve] |
| O=C(Cc1ccc(S(=O)(=O)N2CCCCC2)s1)Nc1ccc(F)c(F)c1 | inconclusive [inhibitor, single point] |
| COc1ccc(N(CC(=O)N2CCCCCC2)S(=O)(=O)c2c(C)[nH]c(=O)[nH]c2=O)cc1 | inconclusive [inhibitor, partial curve] |
| Cc1cc(OCCCC(=O)Nc2nnc(C3CC3)s2)ccc1Cl | inconclusive [inhibitor, full curve, poor fit] |
| O=C(NC1CCCC1)c1ccc2c(c1)N(Cc1ccc(C(F)(F)F)cc1)C(=O)c1ccccc1S2 | inactive |
| CC(C)(C)c1ccc(S(=O)(=O)NCC(=O)N2CCN(Cc3ccccc3)CC2)cc1 | inconclusive [inhibitor, partial curve, poor fit] |
| COc1ccc(NC(C)=O)cc1NC(C)c1nc2sc(C)c(C)c2c(=O)[nH]1 (centres undefined) | inactive |
| CCOc1ccc(S(=O)(=O)N2CCCC(C(=O)N3CCOCC3)C2)cc1Cl (centres undefined) | inactive |
| Cc1ccc(C)c(NC(=O)CN(C)C(=O)c2ccccc2OCc2c(C)noc2C)c1 | inactive |
| COc1cc(CNCc2ccc(C)cc2)cc(OC)c1OC | inactive |
| O=C(c1ccc(C(F)(F)F)cc1)N1CCC(c2noc(-c3ccc(S(=O)(=O)N4CCCC4)cc3)n2)CC1 | inactive |
| CCOc1ccc(-c2nc(C#N)c(NCc3ccco3)o2)cc1 | inconclusive [inhibitor, single point] |
| NC(=O)c1ccccc1NC(=O)C1CCCN(c2ncnc3onc(-c4ccc(F)cc4)c23)C1 (centres undefined) | inactive |
| O=C(Nc1nc(-c2cccs2)cs1)c1ccc(S(=O)(=O)N2CCCC2)cc1 | inactive |
| COc1cc(C(C)=O)ccc1OCC(O)CN(CCO)Cc1ccccc1 (centres undefined) | inconclusive [inhibitor, full curve, poor fit] |
| CN(C)C1=NC[C@H](Cc2ccccc2)N1CCc1cccc(F)c1 | inconclusive [inhibitor, single point] |
| CCc1cc2c(NC(Cc3ccccc3)C(=O)O)ncnc2s1 (centres undefined) | inconclusive [inhibitor, partial curve, poor fit] |
